# Measured values published in PubChem BioAssay AID504832 (National Center for Advancing Translational Sciences (NCATS), 2011).
# In all, about 310,000 compounds went through this assay and about 18,000 (5.8%) were called active. Inconclusive means that the source gave no clear call. Such entries were picked first, then a sample of the others. Calls come from the whole dose curve; as a rule, active = well fitted inhibition curve with a large enough effect; inconclusive = small, poorly fitted or top-dose-only effect, or another doubt; inactive = no such curve, though single readings can be large or run the other way. Potencies of inconclusive entries are left out as doubtful fits.
# Experiment: Primary qHTS for delayed death inhibitors of the malarial parasite plastid, 48 hour incubation
# Conditions: P. falciparum luciferase growth in erythrocytes; series mostly up to 28.7 µM; activity change, negative = inhibition: at the top concentration
# How it was run: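 Read-out is firefly luciferase luminescence from an integrated reporter in P. falciparum, so falling signal marks reduced parasite growth. Infected erythrocytes were at 2% hematocrit and 0.1% parasitemia (final) in Albumax-supplemented RPMI 1640.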
# % is set by controls: 0 for no effect and ±100 for the full control effect; potency is the fitted concentration of half-maximal effect; tags give direction and shape of the fitted curve.
SMILES,Potency,"activity change, negative = inhibition"
COc1ccc2cc(CN(CC3CCCO3)C(=O)Nc3ccccc3)c(=O)[nH]c2c1 (centres undefined),"inconclusive [inhibitor, partial curve]",
CN1/C(=C\C(=O)Nc2ccc(Br)cc2)C(C)(C)c2ccccc21,,inactive: -4.62%
CC(C)Nc1nc(-c2ccncc2)nc(-c2ccc(Cl)cc2)c1C#N,"inconclusive [inhibitor, single point]",
Cc1ccc(-c2nnn(CC(=O)N3c4ccccc4CCc4ccccc43)n2)cc1,active: 10.4 µM,
COC(=O)c1ccc(/C=N/N2CCN(Cc3ccc(Cl)cc3)CC2)cc1,,inactive: 2.64%
COC(=O)C(Cc1ccccc1)NC(=O)CNC(=O)c1ccc(Br)cc1 (centres undefined),,inactive: 4.67%
Cc1cccc(OCC(O)CN2CCN(C3CCCCC3)CC2)c1 (centres undefined),"inconclusive [inhibitor, single point]",
CCc1ccccc1NC(=O)CN(C1CCCCC1)S(C)(=O)=O,,inactive: 15.4%
COc1cccc(/C=C/C(=O)OCC(=O)N2CCCc3ccccc32)c1,,inactive: 15%
COCC(=O)NCc1ccc2c(c1)cc(C)n2C,,inactive: -5.22%
CCOC(=O)C1C(C(=O)OCC)C1(c1ccccc1)c1ccccc1 (centres undefined),"inconclusive [inhibitor, partial curve]",
CC1(C)SC(=S)N(NC(=O)Nc2ccccc2)C1N(O)C(=O)Nc1cccc2ccccc12 (centres undefined),"inconclusive [inhibitor, single point]",
CC1(C)CC(=O)C=C(c2ccc3ncccc3c2)C1,"inconclusive [inhibitor, single point]",
O=C1CC(c2ccc(F)cc2)CC2=C1C=Nc1ccccc1N2 (centres undefined),"inconclusive [inhibitor, single point]",
O=C(Nc1ccc([N+](=O)[O-])cc1)c1ccccc1,,inactive: 107%
Cc1c(NC(=O)C2(c3ccccc3)CCOCC2)c(=O)n(-c2ccccc2)n1C,,inactive: -5.73%
Nc1nc(N2CCN(C(=O)c3ccco3)CC2)nc2ccccc12,"inconclusive [inhibitor, single point]",
CCOC(=O)C1CCCN(CCC(=O)Nc2cccc(Cl)c2C)C1 (centres undefined),,inactive: 40.2%
CCN(C(=O)CCc1nc(-c2ccccc2F)no1)c1cc(OC)ccc1OC,"inconclusive [inhibitor, single point]",
COc1ccc(C(CNC(=O)c2cc(C)oc2C)N2CCOCC2)cc1 (centres undefined),,inactive: -1.32%
COc1ccc(NC(=O)COc2ccccc2Cl)cc1S(=O)(=O)N1CCCCC1,active: 11.7 µM,
FC(F)(F)c1ccc(/C=N/n2c(C3CCCCC3)n[nH]c2=S)cc1,"inconclusive [inhibitor, single point]",
O=c1c([N+](=O)[O-])cc(C(F)(F)F)cn1Cc1cccc(Cl)c1,"inconclusive [inhibitor, full curve, poor fit]",

SMILES,Potency,"activity change, negative = inhibition"
CSc1nc2ccc(S(=O)(=O)N3CCc4ccccc43)cc2s1,"inconclusive [inhibitor, single point]",
CCN1CCN(CC(=O)N2N=C(c3ccc(OC)cc3)CC2c2ccc(OC)cc2)C(=O)C1=O (centres undefined),"inconclusive [inhibitor, single point]",
COc1ccc(CC(=O)OCC(=O)Nc2ccc(Br)cc2)cc1,,inactive: 5.15%
O=C(Nc1ccc(F)cc1)Nc1csc2ccccc12,"inconclusive [inhibitor, partial curve]",
Cc1ccc(CN2CC(C(=O)N3CCN(c4ccccc4Cl)CC3)CC2=O)cc1 (centres undefined),active: 6.57 µM,
NC(=S)N/N=C1\CC(c2ccc3c(c2)OCCO3)Oc2ccc(F)cc21 (centres undefined),"inconclusive [inhibitor, single point]",
CCOC(=O)C1=C(CC)Nc2ccccc2N=C1NC(=O)c1cccc(S(=O)(=O)N2CCCC2)c1,"inconclusive [inhibitor, partial curve, poor fit]",
COc1ccc2[nH]c(=O)c(CN(C(=O)c3ccncc3)C(C)(C)C)cc2c1,"inconclusive [inhibitor, partial curve, poor fit]",
O=C(NC(N1CCOCC1)C(Cl)(Cl)Cl)c1ccc(F)cc1 (centres undefined),,inactive: -4.06%
C=CCN(CC=C)S(=O)(=O)c1ncn[nH]1,,inactive: 22.1%
Cc1cc2ncn(S(=O)(=O)N3CCCCC3)c2cc1C,,inactive: -10.3%
COc1ccc(Cc2noc(CN(C)CC3CCN(Cc4ccccc4)CC3)n2)cc1OC,"inconclusive [inhibitor, partial curve, poor fit]",
c1ccc2cc(OCCCn3ccnc3)ccc2c1,"inconclusive [inhibitor, full curve, poor fit]",
O=C(CN1CCCc2ccccc21)N1CCc2ccccc21,"inconclusive [inhibitor, full curve, poor fit]",
Cc1cccc(N2CCN(C(=O)CN3C(=O)NC(C)(C4CC4)C3=O)CC2)c1C (centres undefined),"inconclusive [inhibitor, single point]",
COc1cccc(NC(=O)NNC(=O)c2ccc3c(c2)NC(=O)C(C)(C)O3)c1,"inconclusive [inhibitor, full curve, poor fit]",
N#Cc1ccc(OCC(=O)N2CCN(c3ccc(C(F)(F)F)cn3)CC2)cc1,"inconclusive [inhibitor, partial curve]",
O=C(CN1C(=O)NC(c2ccccc2)(c2ccccc2)C1=O)N1CCN(c2ccc(F)cc2)CC1,active: 11.7 µM,
Clc1ccccc1-c1nnc2sc(C3COc4ccccc4O3)nn12 (centres undefined),"inconclusive [inhibitor, single point]",
CCCCC(=O)NC(c1ccc(N(C)C)cc1)c1ccc2cccnc2c1O (centres undefined),"inconclusive [inhibitor, single point]",
COc1ccc(NC2c3ccccc3C(=O)N2c2cccnc2)cc1 (centres undefined),"inconclusive [inhibitor, single point]",
COc1ccccc1CN1CCC(n2nccc2NC(=O)c2ccccc2Cl)CC1,"inconclusive [inhibitor, single point]",
Cc1ccc(CN2CCN(Cc3ccc4ncccc4c3)CC2CCO)cc1 (centres undefined),"inconclusive [inhibitor, partial curve]",

SMILES,Potency,"activity change, negative = inhibition"
CCC(C)(C)n1nnnc1C(c1cccs1)N1CCN(c2nc3ccccc3s2)CC1 (centres undefined),active: 11.7 µM,
CC(C)N(Cc1nc2ccccc2[nH]1)C(C)C,"inconclusive [inhibitor, single point]",
Cc1ccc(Nc2cc(C)nc3c(C)cccc23)cc1,"inconclusive [inhibitor, single point]",
COc1ccc(/C=C/C(=O)Nc2cccc(S(=O)(=O)N3CCCC3)c2)cc1OC,active: 13.1 µM,
CC(C)c1ccc(NC(=O)/C(C#N)=C/c2ccncc2)cc1,,inactive: 29.4%
CCOc1ccc(NC(=O)CN(C)C(=O)c2ccc(OCc3ccccc3)c(OC)c2)cc1OCC,"inconclusive [inhibitor, partial curve, poor fit]",
CC(C)(C)c1ccc(C(=O)Nc2ccc(C(=O)NCc3cccnc3)cc2)cc1,active: 6.57 µM,
CCc1cc(Cn2nc(-c3ccccc3)cc2C(=O)NCC2CC2)on1,"inconclusive [inhibitor, single point]",
O=c1c(-c2nc3ccccc3o2)c2oc3ccccc3n2c2ccccc12,"inconclusive [inhibitor, partial curve]",
CCc1nc(SCC(=O)c2ccc3c(c2)OCCO3)c2ccccc2n1,"inconclusive [inhibitor, single point]",
O=C(c1ccc2c(c1)N(Cc1ccccc1)CCS2)N1CCOCC1,,inactive: -7.75%
COc1ccc(Cn2nc(C)n(N(C)c3ncc(C(F)(F)F)cc3Cl)c2=O)cc1,"inconclusive [inhibitor, partial curve, poor fit]",
Cn1c(SCC(=O)NC2CCCc3ccccc32)nnc1C1CC1 (centres undefined),"inconclusive [inhibitor, single point]",
COc1cccc(N2CCN(C(=O)CC(NC(=O)c3ccccc3)c3ccccc3)CC2)c1 (centres undefined),"inconclusive [inhibitor, single point]",
COc1ccccc1NC(=S)NNC(=O)c1ccncc1,,inactive: 26.2%
O=[N+]([O-])c1ccccc1SNc1ccc(Br)cn1,"inconclusive [inhibitor, single point]",
CN(C)CCN(C(=O)c1ccc(S(=O)(=O)N2CCCC2)cc1)c1nc2ccc(Br)cc2s1,"inconclusive [inhibitor, single point]",
CC1CCN(S(=O)(=O)c2cccc(-c3nnc(-c4cccnc4)o3)c2)CC1,"inconclusive [inhibitor, single point]",
O=C1c2ccc3c4c(ccc(c24)C(=O)N1CCCCO)C(=O)N(CCCCO)C3=O,active: 0.738 µM,
CCCCn1c(=O)[nH]c(=O)c2c1nc(-c1ccc(C#N)cc1)n2C1CCCC1,"inconclusive [inhibitor, partial curve, poor fit]",
CC[C@H]1OC(=O)[C@H](C)[C@@H](O[C@H]2C[C@@](C)(OC)[C@@H](O)[C@H](C)O2)[C@H](C)[C@@H](O[C@@H]2O[C@H](C)C[C@H](N(C)C)[C@H]2O)[C@](C)(O)C[C@@H](C)[C@@H]2N[C@@H](COCCOC)O[C@H]([C@H]2C)[C@]1(C)O,"inconclusive [inhibitor, single point]",
CC(=O)NC(=S)Nc1ccc(NC(=O)COc2ccc(Cl)cc2Cl)cc1,,inactive: 8.81%
CCC1Sc2ccc(S(=O)(=O)CCC(=O)NCc3cccs3)cc2NC1=O (centres undefined),"inconclusive [inhibitor, single point]",
